# The list shows a part of the results.
# B1: Neuropilin-2 (Homo sapiens), O60462 (protein)
# chain: MDMFPLTWVFLALYFSRHQVRGQPDPPCGGRLNSKDAGYITSPGYPQDYPSHQNCEWIVYAPEPNQKIVLNFNPHFEIEKHDCKYDFIEIRDGDSESADLLGKHCGNIAPPTIISSGSMLYIKFTSDYARQGAGFSLRYEIFKTGSEDCSKNFTSPNGTIESPGFPEKYPHNLDCTFTILAKPKMEIILQFLIFDLEHDPLQVGEGDCKYDWLDIWDGIPHVGPLIGKYCGTKTPSELRSSTGILSLTFHTDMAVAKDGFSARYYLVHQEPLENFQCNVPLGMESGRIANEQISASSTYSDGRWTPQQSRLHGDDNGWTPNLDSNKEYLQVDLRFLTMLTAIATQGAISRETQNGYYVKSYKLEVSTNGEDWMVYRHGKNHKVFQANNDATEVVLNKLHAPLLTRFVRIRPQTWHSGIALRLELFGCRVTDAPCSNMLGMLSGLIADSQISASSTQEYLWSPSAARLVSSRSGWFPRIPQAQPGEEWLQVDLGTPKTVKGVIIQGARGGDSITAVEARAFVRKFKVSYSLNGKDWEYIQDPRTQQPKLFEGNMHYDTPDIRRFDPIPAQYVRVYPERWSPAGIGMRLEVLGCDWTDSKPTVETLGPTVKSEETTTPYPTEEEATECGENCSFEDDKDLQLPSGFNCNFDFLEEPCGWMYDHAKWLRTTWASSSSPNDRTFPDDRNFLRLQSDSQREGQYARLISPPVHLPRSPVCMEFQYQATGGRGVALQVVREASQESKLLWVIREDQGGEWKHGRIILPSYDMEYQIVFEGVIGKGRSGEIAIDDIRISTDVPLENCMEPISAFAGENFKVDIPEIHEREGYEDEIDDEYEVDWSNSSSATSGSGAPSTDKEKSWLYTLDPILITIIAMSSLGVLLGATCAGLLLYCTCSYSGLSSRSCTTLENYNFELYDGLKHKVKMNHQKCCSEA
# Key:
# Assay in all cases: glycan array binding signal (z-score within array); higher = stronger binding
# Settings in all cases: glycan notation: IUPAC condensed, linker removed
# [1] = target: GlcNAc(b1-4)GlcNAc(b1-4)GlcNAc
# Summary of the method: (§1)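 Glycan array data were curated from 3228 arrays in the Consortium for Functional Glycomics database and kept only where the protein sequence was available. Glycan names were converted to IUPAC-condensed notation, and columns mapping to the same glycan were averaged. The binding signal is a within-array Z-score, averaged across arrays of the same protein sequence at different concentrations or buffers and across linkers. Negative Z-scores can be read as non-binding.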
# [2] = target: GlcNAc(b1-4)GlcNAc(b1-4)GlcNAc(b1-4)GlcNAc(b1-4)GlcNAc
# Summary of the method: as §1
# [3] = target: GlcNAc(b1-4)GlcNAc(b1-4)GlcNAc(b1-4)GlcNAc(b1-4)GlcNAc(b1-4)GlcNAc
# Summary of the method: as §1
# [4] = target: GlcNAc(b1-4)[GlcNAc(b1-6)]GalNAc
# Summary of the method: as §1
# [5] = target: GlcNAc(b1-6)Gal(b1-4)GlcNAc
# Summary of the method: as §1
# GlcNAc(b1-6)GalNAc = target: GlcNAc(b1-6)GalNAc
# Summary of the method: as §1
# GlcNAc3Prop(b1-4)GlcNAc = target: GlcNAc3Prop(b1-4)GlcNAc
# Summary of the method: as §1
# [6] = target: GlcNAc6S(b1-3)Gal(b1-4)GlcNAc
# Summary of the method: as §1
# Kdn(a2-3)Gal(b1-3)GalNAc = target: Kdn(a2-3)Gal(b1-3)GalNAc
# Summary of the method: as §1
# Kdn(a2-3)Gal(b1-3)GlcNAc = target: Kdn(a2-3)Gal(b1-3)GlcNAc
# Summary of the method: as §1
# Kdn(a2-3)Gal(b1-4)Glc = target: Kdn(a2-3)Gal(b1-4)Glc
# Summary of the method: as §1
# Kdn(a2-3)Gal(b1-4)GlcNAc = target: Kdn(a2-3)Gal(b1-4)GlcNAc
# Summary of the method: as §1
# [7] = target: Kdn(a2-3)Gal(b1-4)[Fuc(a1-3)]GlcNAc
# Summary of the method: as §1
# Kdn(a2-6)Gal(b1-4)GlcNAc = target: Kdn(a2-6)Gal(b1-4)GlcNAc
# Summary of the method: as §1
# [8] = target: Man(a1-2)Man(a1-2)Man(a1-3)Man
# Summary of the method: as §1
# [9] = target: Man(a1-2)Man(a1-2)Man(a1-6)[Man(a1-3)]Man
# Summary of the method: as §1
# Man(a1-2)Man(a1-3)Man = target: Man(a1-2)Man(a1-3)Man
# Summary of the method: as §1
# [10] = target: Man(a1-2)Man(a1-3)[Man(a1-2)Man(a1-6)]Man
# Summary of the method: as §1
# [11] = target: Man(a1-2)Man(a1-3)[Man(a1-2)Man(a1-6)]Man(a1-6)[Man(a1-2)Man(a1-2)Man(a1-3)]Man
# Summary of the method: as §1
# [12] = target: Man(a1-2)Man(a1-3)[Man(a1-2)Man(a1-6)]Man(a1-6)[Man(a1-2)Man(a1-2)Man(a1-3)]Man(b1-4)GlcNAc(b1-4)GlcNAc
# Summary of the method: as §1
# [13] = target: Man(a1-2)Man(a1-3)[Man(a1-6)]Man(a1-6)[Man(a1-2)Man(a1-3)]Man(b1-4)GlcNAc(b1-4)GlcNAc
# Summary of the method: as §1
# [14] = target: Man(a1-2)Man(a1-6)[Man(a1-3)]Man(a1-6)[Man(a1-2)Man(a1-2)Man(a1-3)]Man
# Summary of the method: as §1
# [15] = target: Man(a1-2)Man(a1-6)[Man(a1-3)]Man(a1-6)[Man(a1-2)Man(a1-2)Man(a1-3)]Man(b1-4)GlcNAc(b1-4)GlcNAc
# Summary of the method: as §1
# Man(a1-3)[Man(a1-6)]Man = target: Man(a1-3)[Man(a1-6)]Man
# Summary of the method: as §1
# [16] = target: Man(a1-3)[Man(a1-6)]Man(a1-6)[Man(a1-2)Man(a1-3)]Man(b1-4)GlcNAc(b1-4)GlcNAc
# Summary of the method: as §1
# [17] = target: Man(a1-3)[Man(a1-6)]Man(a1-6)[Man(a1-3)]Man
# Summary of the method: as §1
# [18] = target: Man(a1-3)[Man(a1-6)]Man(a1-6)[Man(a1-3)]Man(b1-4)GlcNAc(b1-4)GlcNAc
# Summary of the method: as §1
# [19] = target: Man(a1-3)[Man(a1-6)]Man(b1-4)GlcNAc(b1-4)GlcNAc
# Summary of the method: as §1
binder,measurement,setting,value
B1,glycan array binding signal (z-score),[1],-0.709
same,glycan array binding signal (z-score),[2],-0.794
same,glycan array binding signal (z-score),[3],-0.481
same,glycan array binding signal (z-score),[4],-0.173
same,glycan array binding signal (z-score),[5],0.119
same,glycan array binding signal (z-score),GlcNAc(b1-6)GalNAc,-0.179
same,glycan array binding signal (z-score),GlcNAc3Prop(b1-4)GlcNAc,-0.453
same,glycan array binding signal (z-score),[6],-0.731
same,glycan array binding signal (z-score),Kdn(a2-3)Gal(b1-3)GalNAc,-0.498
same,glycan array binding signal (z-score),Kdn(a2-3)Gal(b1-3)GlcNAc,-0.115
same,glycan array binding signal (z-score),Kdn(a2-3)Gal(b1-4)Glc,-0.063
same,glycan array binding signal (z-score),Kdn(a2-3)Gal(b1-4)GlcNAc,-0.082
same,glycan array binding signal (z-score),[7],0.559
same,glycan array binding signal (z-score),Kdn(a2-6)Gal(b1-4)GlcNAc,-0.13
same,glycan array binding signal (z-score),[8],-0.286
same,glycan array binding signal (z-score),[9],-0.323
same,glycan array binding signal (z-score),Man(a1-2)Man(a1-3)Man,-0.503
same,glycan array binding signal (z-score),[10],-0.496
same,glycan array binding signal (z-score),[11],-0.552
same,glycan array binding signal (z-score),[12],0.34
same,glycan array binding signal (z-score),[13],-0.144
same,glycan array binding signal (z-score),[14],-0.668
same,glycan array binding signal (z-score),[15],-0.61
same,glycan array binding signal (z-score),Man(a1-3)[Man(a1-6)]Man,-0.354
same,glycan array binding signal (z-score),[16],-0.461
same,glycan array binding signal (z-score),[17],-0.72
same,glycan array binding signal (z-score),[18],0.082
same,glycan array binding signal (z-score),[19],-0.069

# — the supplement of paper PMC8728848
